Measured values from publication PMC10026737.
Results are given in words; binding and its absence hold for the method and conditions named. In cells and extracts the contact can be indirect. Some binding calls cover weakened binding; strength is not graded here. Where a sequence is shown, tags or fusion partners need not be part of it.

Legend:
Test in all cases: co-IP; H1299 cells co-transfected with a Flag-tagged and a V5-tagged protein; NP40 lysis buffer (50 mmol/L Tris-HCl pH 8.0, 0.5% NP-40, 1 mmol/L EDTA, 150 mmol/L NaCl); IP with anti-Flag antibody, immunoblot
[1] = molecular target: T1, Flag-USP36 deletion mutant, N-terminal USP domain containing region (amino acids 1-420) (UniProt Q9P275)
T1 sequence: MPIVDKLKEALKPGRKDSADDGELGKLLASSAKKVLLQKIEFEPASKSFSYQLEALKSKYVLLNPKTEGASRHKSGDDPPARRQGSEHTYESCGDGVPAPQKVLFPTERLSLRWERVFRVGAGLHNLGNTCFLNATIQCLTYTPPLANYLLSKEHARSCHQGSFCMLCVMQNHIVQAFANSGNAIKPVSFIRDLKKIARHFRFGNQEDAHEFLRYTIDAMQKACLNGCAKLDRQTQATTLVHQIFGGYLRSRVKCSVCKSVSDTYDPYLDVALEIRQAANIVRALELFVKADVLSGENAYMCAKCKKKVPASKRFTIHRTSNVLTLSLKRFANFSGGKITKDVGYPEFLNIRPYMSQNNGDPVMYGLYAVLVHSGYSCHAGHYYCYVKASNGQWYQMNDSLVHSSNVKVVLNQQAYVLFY

[2] = molecular target: T2, Flag-USP36 deletion mutant, middle region (aa 421-800) (UniProt Q9P275)
T2 sequence: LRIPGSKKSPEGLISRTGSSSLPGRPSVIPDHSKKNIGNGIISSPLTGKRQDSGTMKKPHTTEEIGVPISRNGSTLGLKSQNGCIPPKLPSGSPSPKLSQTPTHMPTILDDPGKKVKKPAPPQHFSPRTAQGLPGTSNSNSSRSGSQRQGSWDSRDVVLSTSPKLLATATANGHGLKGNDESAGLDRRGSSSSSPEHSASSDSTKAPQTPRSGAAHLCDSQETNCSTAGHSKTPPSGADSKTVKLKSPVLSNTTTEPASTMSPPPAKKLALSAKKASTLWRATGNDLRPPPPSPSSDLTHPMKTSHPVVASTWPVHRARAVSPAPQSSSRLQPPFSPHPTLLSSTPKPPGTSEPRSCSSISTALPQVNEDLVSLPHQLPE

[3] = molecular target: T3, Flag-tagged full-length USP36 (wild-type) (UniProt Q9P275)
T3 sequence: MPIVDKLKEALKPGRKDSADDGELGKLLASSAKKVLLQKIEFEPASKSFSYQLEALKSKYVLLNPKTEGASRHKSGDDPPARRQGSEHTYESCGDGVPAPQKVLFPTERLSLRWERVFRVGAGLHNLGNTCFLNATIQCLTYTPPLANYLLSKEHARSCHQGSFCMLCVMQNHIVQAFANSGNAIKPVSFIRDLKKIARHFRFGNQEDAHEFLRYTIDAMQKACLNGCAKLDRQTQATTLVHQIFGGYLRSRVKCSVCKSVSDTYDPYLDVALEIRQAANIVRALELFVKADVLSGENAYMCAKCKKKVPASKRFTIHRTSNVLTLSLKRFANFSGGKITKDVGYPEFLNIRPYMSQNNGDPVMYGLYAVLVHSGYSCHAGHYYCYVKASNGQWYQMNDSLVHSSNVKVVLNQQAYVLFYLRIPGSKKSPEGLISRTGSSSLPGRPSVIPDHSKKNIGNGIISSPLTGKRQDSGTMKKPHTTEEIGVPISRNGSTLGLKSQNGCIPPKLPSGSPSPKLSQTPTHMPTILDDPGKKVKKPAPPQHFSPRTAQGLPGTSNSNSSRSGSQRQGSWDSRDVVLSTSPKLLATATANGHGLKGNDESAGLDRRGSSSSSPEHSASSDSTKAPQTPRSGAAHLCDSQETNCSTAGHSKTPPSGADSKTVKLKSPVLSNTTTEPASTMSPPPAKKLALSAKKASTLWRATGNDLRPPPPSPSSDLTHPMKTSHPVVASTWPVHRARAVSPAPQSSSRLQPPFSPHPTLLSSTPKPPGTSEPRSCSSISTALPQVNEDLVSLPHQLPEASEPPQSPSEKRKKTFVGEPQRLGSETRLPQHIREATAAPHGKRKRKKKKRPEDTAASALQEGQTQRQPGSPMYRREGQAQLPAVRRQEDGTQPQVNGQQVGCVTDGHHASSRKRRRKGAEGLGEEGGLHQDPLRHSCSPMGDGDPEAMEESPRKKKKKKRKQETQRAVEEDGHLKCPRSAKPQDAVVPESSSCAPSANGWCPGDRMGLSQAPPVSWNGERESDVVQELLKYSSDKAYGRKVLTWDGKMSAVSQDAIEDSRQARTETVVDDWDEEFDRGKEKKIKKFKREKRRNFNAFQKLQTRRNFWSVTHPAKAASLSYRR

[4] = molecular target: T4, Flag-USP36 deletion mutant, C-terminal nucleolar localization signal containing region (aa 801-1121) (UniProt Q9P275)
T4 sequence: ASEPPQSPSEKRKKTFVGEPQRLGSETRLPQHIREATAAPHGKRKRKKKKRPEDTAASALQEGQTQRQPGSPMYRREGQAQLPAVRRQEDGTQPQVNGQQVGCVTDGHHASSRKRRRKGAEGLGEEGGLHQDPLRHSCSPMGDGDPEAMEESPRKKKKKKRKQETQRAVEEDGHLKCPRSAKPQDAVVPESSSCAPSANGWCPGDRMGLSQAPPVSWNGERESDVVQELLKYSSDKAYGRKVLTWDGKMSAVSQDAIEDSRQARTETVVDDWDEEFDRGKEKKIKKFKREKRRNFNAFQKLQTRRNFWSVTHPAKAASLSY

binding [1]: binds
binding [2]: no binding
binding [3]: binds
binding [4]: binds
B1: V5-DGCR8 (protein, UniProt Q8WYQ5 1-773)
chain: METDESPSPLPCGPAGEAVMESRARPFQALPREQSPPPPLQTSSGAEVMDVGSGGDGQSELPAEDPFNFYGASLLSKGSFSKGRLLIDPNCSGHSPRTARHAPAVRKFSPDLKLLKDVKISVSFTESCRSKDRKVLYTGAERDVRAECGLLLSPVSGDVHACPFGGSVGDGVGIGGESADKKDEENELDQEKRVEYAVLDELEDFTDNLELDEEGAGGFTAKAIVQRDRVDEEALNFPYEDDFDNDVDALLEEGLCAPKKRRTEEKYGGDSDHPSDGETSVQPMMTKIKTVLKSRGRPPTEPLPDGWIMTFHNSGVPVYLHRESRVVTWSRPYFLGTGSIRKHDPPLSSIPCLHYKKMKDNEEREQSSDLTPSGDVSPVKPLSRSAELEFPLDEPDSMGADPGPPDEKDPLGAEAAPGALGQVKAKVEVCKDESVDLEEFRSYLEKRFDFEQVTVKKFRTWAERRQFNREMKRKQAESERPILPANQKLITLSVQDAPTKKEFVINPNGKSEVCILHEYMQRVLKVRPVYNFFECENPSEPFGASVTIDGVTYGSGTASSKKLAKNKAARATLEILIPDFVKQTSEEKPKDSEELEYFNHISIEDSRVYELTSKAGLLSPYQILHECLKRNHGMGDTSIKFEVVPGKNQKSEYVMACGKHTVRGWCKNKRVGKQLASQKILQLLHPHVKNWGSLLRMYGRESSKMVKQETSDKSVIELQQYAKKNKPNLHILSKLQEEMKRLAEEREETRKKPKMSIVASAQPGGEPLCTVDV
